Our source for the enrichment ratio values is a collection of fitness landscapes (doi:10.1126/science.1257360).

The other results are listed elsewhere or left out. Where only a bound is given, the exact number is not on record here.

Sequences and labels used below:
B1: PhoQ; a variant is named by its letters at X, in order, P23837 (parent)
chain: MKKLLRLFFPLSLRVRFLLATAAVVLVLSLAYGMVALIGYSVSFDKTTFRLLRGESNLFYTLAKWENNKLHVELPENIDKQSPTMTLIYDENGQLLWAQRDVPWLMKMIQPDWLKSNGFHEIEADVNDTSLLLSGDHSIQQQLQEVREDDDDAEMTHSVAVNVYPATSRMPKLTIVVVDTIPVELKSSYMVWSWFIYVLSANLLLVIPLLWVAAWWSLRPIEALAKEVRELEEHNRELLNPATTRELTSLVRNLNRLLKSERERYDKYRTTLTDLTHSLKTPLXXLQXXLRSLRSEKMSVSDAEPVMLEQISRISQQIGYYLHRASMRGGTLLSRELHPVAPLLDNLTSALNKVYQRKGVNISLDISPEISFVGEQNDFVEVMGNVLDNACKYCLEFVEISARQTDEHLYIVVEDDGPGIPLSKREVIFDRGQRVDTLRPGQGVGLAVAREITEQYEGKIVAGESMLGGARMEVIFGRQHSAPKDE

Variants of B1 are the subject of this test. Briefly: enrichment ratio after two sorts for PhoP signalling (ratio (wild type AVST 3.29)); higher = more functional. Particulars: with PhoP (E. coli).
GNLH: the enrichment ratio turned out to be 1.09. As to FPSA, the enrichment ratio was no more than 0.25. The same measure for VRSL: no more than 0.25; for QCLY: no more than 0.25. On to GWPF, for which the enrichment ratio was no more than 0.25. Regarding QFFG, the enrichment ratio came out at 0.984.

Regarding KFER, the enrichment ratio is no more than 0.25. The same measure for MTQS: no more than 0.25; for IQNI: no more than 0.25.

For the variant SIQT, the enrichment ratio was no more than 0.25. The same measure for MTFY: 9.39. On to VDWS, for which the enrichment ratio is no more than 0.25. Consider KMRA, for which the enrichment ratio is no more than 0.25. GSTL: the enrichment ratio was 6.96. As for SDLK, the enrichment ratio is no more than 0.25.

MEFS: the enrichment ratio turned out to be 11.1.

Regarding WRKL, the enrichment ratio was no more than 0.25. Turning to VMIK, the enrichment ratio is no more than 0.25.

For the variant FPCP, the enrichment ratio was no more than 0.25. Take PNQY: the enrichment ratio is no more than 0.25. Regarding AVGA, the enrichment ratio is no more than 0.25. As for PDGV, the enrichment ratio is no more than 0.25. Regarding RQFC, the enrichment ratio was no more than 0.25. In the case of RTLG, the enrichment ratio was no more than 0.25. The same measure for MGIT: no more than 0.25. For NFHT, the enrichment ratio is no more than 0.25. FFSV: the enrichment ratio was no more than 0.25. Consider WYYE, for which the enrichment ratio is no more than 0.25. Take YPVL: the enrichment ratio was no more than 0.25. In the case of ICQY, the enrichment ratio was no more than 0.25. Take THTA: the enrichment ratio is no more than 0.25. The same measure for YGTG: no more than 0.25; for KVPM: no more than 0.25. Regarding KLTR, the enrichment ratio is no more than 0.25. The same measure for FNLH: no more than 0.25. As for ECYK, the enrichment ratio is no more than 0.25. In the case of AVIQ, the enrichment ratio is no more than 0.25. In the case of MRFN, the enrichment ratio is no more than 0.25.

For IQRR, the enrichment ratio is no more than 0.25.

As for HGFL, the enrichment ratio is no more than 0.25. The same measure for PPDR: no more than 0.25; for QTCG: no more than 0.25. Consider CFTR, for which the enrichment ratio was no more than 0.25. For the variant YRFD, the enrichment ratio is no more than 0.25. On to LLWN, for which the enrichment ratio is no more than 0.25. As for LSQK, the enrichment ratio was no more than 0.25. VGHT: the enrichment ratio was no more than 0.25. Regarding MEYH, the enrichment ratio is no more than 0.25. The same measure for WYPN: no more than 0.25. For the variant WTTW, the enrichment ratio is no more than 0.25. As for MRRC, the enrichment ratio is no more than 0.25. In the case of KCAL, the enrichment ratio is no more than 0.25.

Regarding ESHS, the enrichment ratio was no more than 0.25.

With MRLI, the enrichment ratio was no more than 0.25. With ASGQ, the enrichment ratio is no more than 0.25. In the case of MEYM, the enrichment ratio amounted to 7.39.

For the variant TINL, the enrichment ratio is 9.31. Take MMVP: the enrichment ratio is no more than 0.25. HAIG: the enrichment ratio was no more than 0.25. The same measure for RHDW: no more than 0.25.

Turning to VGRP, the enrichment ratio was no more than 0.25. Turning to QMPC, the enrichment ratio was no more than 0.25. HPRQ: the enrichment ratio is no more than 0.25. Regarding KCAK, the enrichment ratio was no more than 0.25. As for DNIR, the enrichment ratio was no more than 0.25. Take VTAE: the enrichment ratio is no more than 0.25. For VQWK, the enrichment ratio is no more than 0.25. With LLMA, the enrichment ratio was found to be 3.19. Take LNQT: the enrichment ratio was no more than 0.25.

In the case of SHDE, the enrichment ratio was no more than 0.25. As to AAEN, the enrichment ratio was no more than 0.25.

For the variant FWCE, the enrichment ratio is no more than 0.25. Take LCCT: the enrichment ratio was no more than 0.25.

With EDTP, the enrichment ratio was no more than 0.25. In the case of DVDF, the enrichment ratio is no more than 0.25. The same measure for SMKM: no more than 0.25; for PNES: no more than 0.25; for GHMH: no more than 0.25. The same measure for QRRT: no more than 0.25; for NHFH: no more than 0.25. As for NPHI, the enrichment ratio is no more than 0.25. The same measure for QDPT: no more than 0.25. The same measure for SWFG: no more than 0.25; for VQNA: no more than 0.25. In the case of YHYC, the enrichment ratio is no more than 0.25.

As for YKEH, the enrichment ratio is no more than 0.25. For MCDH, the enrichment ratio was no more than 0.25.

Take WIFV: the enrichment ratio was no more than 0.25. In the case of RDHV, the enrichment ratio is no more than 0.25. For HTHH, the enrichment ratio is no more than 0.25. Turning to QCNQ, the enrichment ratio was no more than 0.25. For the variant TSDT, the enrichment ratio was no more than 0.25.

In the case of DFFY, the enrichment ratio is no more than 0.25. NWRH: the enrichment ratio is no more than 0.25.

Regarding SKKE, the enrichment ratio is no more than 0.25. For the variant KTAL, the enrichment ratio was no more than 0.25. As to TKGN, the enrichment ratio is no more than 0.25. For the variant YSVR, the enrichment ratio was no more than 0.25. With DVAW, the enrichment ratio was no more than 0.25.

Consider MMFN, for which the enrichment ratio is no more than 0.25. In the case of KIML, the enrichment ratio is no more than 0.25. Regarding APFT, the enrichment ratio was no more than 0.25. In the case of SAYA, the enrichment ratio is no more than 0.25. Consider TFYN, for which the enrichment ratio was no more than 0.25.

As for GIAE, the enrichment ratio was no more than 0.25. On to YFKK, for which the enrichment ratio is no more than 0.25. HKWM: the enrichment ratio is no more than 0.25.

For EKYI, the enrichment ratio was no more than 0.25.

For RSTQ, the enrichment ratio was no more than 0.25. As for YRVV, the enrichment ratio is no more than 0.25. Turning to KCCK, the enrichment ratio was no more than 0.25. Turning to LMSR, the enrichment ratio was no more than 0.25. For the variant HVGR, the enrichment ratio is no more than 0.25. As to SHTW, the enrichment ratio is no more than 0.25. With SIDI, the enrichment ratio was no more than 0.25. As for MRCH, the enrichment ratio is no more than 0.25. The same measure for KHLH: no more than 0.25. The same measure for VDNN: no more than 0.25; for EQSS: no more than 0.25.

Turning to NKFW, the enrichment ratio is no more than 0.25. The same measure for CALF: no more than 0.25; for HSRL: no more than 0.25; for QMFS: no more than 0.25. As for SFEA, the enrichment ratio is no more than 0.25.

Regarding KPCF, the enrichment ratio was no more than 0.25.

For the variant AWES, the enrichment ratio was no more than 0.25. For LDTE, the enrichment ratio is no more than 0.25.

For ESPI, the enrichment ratio was no more than 0.25. KVIP: the enrichment ratio was no more than 0.25.

Take PLER: the enrichment ratio was no more than 0.25. In the case of WYDC, the enrichment ratio was no more than 0.25. The same measure for VSHW: no more than 0.25; for SPPY: no more than 0.25; for FPET: no more than 0.25.

As for HQEQ, the enrichment ratio was no more than 0.25.

Turning to TCGR, the enrichment ratio is no more than 0.25. The same measure for LHTG: no more than 0.25; for GNMI: 46.4; for EGMA: no more than 0.25. Consider EHFM, for which the enrichment ratio is no more than 0.25. For QSGD, the enrichment ratio is no more than 0.25.

In the case of ANSK, the enrichment ratio was no more than 0.25. For QCYG, the enrichment ratio is no more than 0.25. With FWSN, the enrichment ratio was no more than 0.25. The same measure for KKCR: no more than 0.25; for VCWA: no more than 0.25. The same measure for TMQE: no more than 0.25; for CKSI: no more than 0.25. The same measure for HWAW: no more than 0.25; for LLWR: no more than 0.25; for MHAF: no more than 0.25. Consider AGGT, for which the enrichment ratio was no more than 0.25. The same measure for DYVR: no more than 0.25.
